# Source: the supplement of paper PMC3334620
# The full ranking holds about 33,000 sequences; the median of “E-score (-0.5 to 0.5)” is about -0.012, and the highest 2% start at about 0.29. This is one part of the list.
# Biological target: T1, Ybr033w (UniProt P38073)
# T1 sequence: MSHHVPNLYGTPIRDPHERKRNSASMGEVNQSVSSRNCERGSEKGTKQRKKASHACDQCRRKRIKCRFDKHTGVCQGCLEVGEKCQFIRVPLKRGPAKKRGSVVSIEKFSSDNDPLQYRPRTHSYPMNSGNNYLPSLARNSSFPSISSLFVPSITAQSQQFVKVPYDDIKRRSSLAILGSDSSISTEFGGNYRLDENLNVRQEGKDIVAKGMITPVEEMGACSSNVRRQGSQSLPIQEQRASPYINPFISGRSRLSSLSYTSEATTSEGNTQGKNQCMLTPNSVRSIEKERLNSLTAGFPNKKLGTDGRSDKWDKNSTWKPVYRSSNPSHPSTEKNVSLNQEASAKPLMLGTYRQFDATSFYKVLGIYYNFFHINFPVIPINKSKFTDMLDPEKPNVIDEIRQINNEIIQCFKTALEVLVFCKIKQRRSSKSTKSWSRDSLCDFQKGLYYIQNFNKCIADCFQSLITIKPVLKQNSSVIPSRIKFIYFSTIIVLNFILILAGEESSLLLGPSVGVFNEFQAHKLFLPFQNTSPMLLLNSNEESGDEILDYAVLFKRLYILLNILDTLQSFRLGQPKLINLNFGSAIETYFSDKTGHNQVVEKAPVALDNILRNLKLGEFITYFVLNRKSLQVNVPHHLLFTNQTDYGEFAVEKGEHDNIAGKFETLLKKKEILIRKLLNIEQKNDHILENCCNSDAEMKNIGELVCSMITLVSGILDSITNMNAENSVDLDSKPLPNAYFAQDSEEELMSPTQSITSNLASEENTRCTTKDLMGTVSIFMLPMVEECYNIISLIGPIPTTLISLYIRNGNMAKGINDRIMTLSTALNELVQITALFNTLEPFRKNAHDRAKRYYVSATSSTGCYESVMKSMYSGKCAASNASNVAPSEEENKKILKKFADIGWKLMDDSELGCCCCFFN
# Test: PBM E-score (8-mer binding enrichment) (E-score (-0.5 to 0.5)); higher = stronger / more preferred TF binding; most listed sequences are background and not binding sites
# Details: protein concentration: 200 nM; construct: GST-full length
# Procedure: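 Universal 'all 10-mer' protein binding microarrays (Agilent AMADID 015681) probed with GST-tagged S. cerevisiae TFs (full-length or DBD) made by in vitro transcription/translation (PURExpress), about 100-200 nM. Bound TF was detected with fluorescent anti-GST. Each ungapped 8-mer (which stands for itself and its reverse complement) is scored by the PBM enrichment score (E-score), a modified Wilcoxon-Mann-Whitney statistic from -0.5 to +0.5, computed with the Universal PBM Analysis Suite. Scale: above 0.35 generally sequence-specific binding.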
row,Sequence,PBM E-score
1,AGCGGTTC,-0.0976
2,ACACCTAA,0.101
3,AAGCCCTC,-0.114
4,CTAAATGA,0.0729
5,CCGCGGGC,-0.118
6,TCATAAAA,0.159
7,ATCAAGCC,0.0771
8,AAAGTGGT,0.121
9,ACACATAC,0.0431
10,AAACCGAC,0.054
11,GCTCTTCC,0.0199
12,CAAAACGG,-0.00109
13,CCTAACCG,-0.183
14,ATCTCTGA,0.0872
15,ACACTGAG,0.0232
16,CGTGCCGC,-0.281
17,ATTCATCG,-0.0554
18,ACTTGAAG,0.0311
19,GCTATTAC,-0.0504
20,GGTCAGTA,-0.01
21,GGATGCCA,-0.167
22,GGGAATAC,-0.0369

row,Sequence,PBM E-score
1,TAGCACTA,-0.0865
2,CCACTTGA,-0.0116
3,ACAGTCTA,-0.0363
4,CGGGGCTC,-0.168
5,AGGTAAAT,0.133
6,GGTGATAA,-0.033
7,CGTTAATC,0.248
8,CGAGGGGA,-0.179
9,ACCAACCT,0.00045
10,ATCCCCCG,-0.129
11,CTAAACAA,0.112
12,GGAGCAAC,-0.202
13,ACAGCGCT,-0.0686
14,CATCACCC,-0.266
15,AAGTTGAC,0.128
16,AGCGAAGC,-0.227
17,GTGAAAAC,0.105
18,CAAAAGCA,0.0319
19,GAACCGAA,0.138
20,AAATCCGG,0.265
21,GGGAAACC,-0.0396
22,TTAATCAA,0.258

row,Sequence,PBM E-score
1,GTACTATA,0.208
2,CCGAGACC,-0.295
3,CAGGAAAC,-0.0534
4,AACTTACG,0.103
5,GGACGGAC,-0.278
6,GATGGCAA,0.175
7,AGTCCTTG,-0.0834
8,AGTGCCCA,-0.158
9,CGCCGCTA,-0.113
10,TAAAGCTA,0.0949
11,GCAAGAAA,0.0331
12,ATCGTATC,0.111
13,AACTGCCG,-0.0138
14,CGCAAGAA,0.174
15,CCGAGACG,-0.154
16,AATACCGG,0.11
17,GCACAGTA,0.0829
18,CGACTTTC,-0.0733
19,CATGGGAC,-0.122
20,GCAGGGCC,-0.355
21,AACGGTCA,0.0744
22,GCCAGATA,0.0301

row,Sequence,PBM E-score
1,CTAATATC,0.196
2,CCGTCAGC,-0.195
3,ACCATCAA,0.137
4,CTCACTAA,0.0203
5,CCTTCGGA,0.117
6,CGCTCAGA,-0.029
7,AACTGCCA,-0.102
8,AGCGCATA,-0.0211
9,CTTAGGTC,-0.226
10,ATCCCACG,-0.139
11,AGCATACG,-0.0246
12,CCTATAGC,-0.0831
13,ACGTCATA,0.214
14,CCTCGCAG,-0.237
15,ACGCCAAT,0.157
16,ATTGTGAG,0.122
17,AATAGACG,-0.00095
18,CAGTCCGA,-0.12
19,CCTGCCCA,-0.314
20,CCGTGGAG,-0.327
